Test results from the RNAGym collection of RNA variant scans (doi:10.7554/elife.90254).
The source gives no read counts; variants with many changes may rest on few reads.

B1: OR4K15 (parent)
chain: GUUAACGGUCAUAGGCCAUGGAAACUAGGAGCACCAUUUCGCUGCCAGUGAAGAAAUGAACAAAGAAAAUCUGGGCCAGGCAGGCAUCAAAAGAAAUAGUCUUGCGCUCAACCAGAAAGUCUGUAAUCAUUUUAAGGGUA

Variants of: B1
Test: self-cleavage, relative activity (ratio to wild type); higher = more cleavage; in vitro, sequencing; the parent is a self-cleaving ribozyme

Variant | self-cleavage
GCUAACGGUCAUAGGCCAUGGAAACUAGGAGCACCAUUUCGCUGCCAGUGAAGAAAUGAACAGAGAAAAUCUGGGCCAGGCAGGCAUCAAAAGAAAUAGUCUUGCGCUCAACCAGAAAGCCUGUAAUCAUUUUAAGGGGA [U2C A63G U120C U139G] | 0.97
GCUAACGGUCAUAGGCCAUGGAAACUAGGAGCACCAUUUCGCUGCCAGUGAAGAAGUGUACAAAGAAAAUCUGGGCCAGGCAAGCAUCAAAAGAAAUAGUCCUGCGCUCAACCAGAAAGUCUGUAACCAUUUUAAGGGUA [U2C A56G A59U G83A U102C U127C] | 0.18
GCUAACGGUCAUAGGCCAUGGAAACUAGGAGCACCAUUUCGCUGCCAGUGAAGAAGUGAACAAAGAAAAUCUGGGCCAGGCAGGCAUCAAAAGAAAUAGUCUUGCGCUCAACCAGAAAGUCUGUAAUCAUUUUAGGGGUA [U2C A56G A135G] | 0.86
GCUAACGGUCAUAGGCCAUGGAAACUAGGAGCACCAUUUCGCUGCCAGUGAAGUAGUGAACAAAGAAAAUCUGGGCCAGGCAGGCAUCAAAAGAAAUAGUCUUGCGCUCAACCAGAAAGUCUGUAAUCGUUUUAAGGGUA [U2C A54U A56G A129G] | 0.25
GCUAACGGUCAUAGGCCAUGGAAACUAGGAGCACCAUUUCGCUGCCAGUGAAGAAAUGAACAAAGAAAAUCUGGGCCGGGCAGGCAUCAAAAGAAAUAGUCUUGCGCUCAACCAGAAAGUCUGUAAUCAUUUUGAGGGUA [U2C A78G A134G] | 0.63
GCUAACGGUCAUAGGCCAUGGAAACUAGGAGCACCAUUUCGCUGCCAGUGAAGAAAUGGACAAAGAAAAUCUGGGCCAGGCAGGCAUCAAAAGAAAUAGUCUUGCGCUCAACCAGAAAGUCUGUAAUCAUUCUAAGGGUA [U2C A59G U132C] | 0.32
GCUAACGGUCAUAGGCCAUGGAAACUAGGAGCACCAUUUCGCUGCCAGUGAAGAAAUGAACAAAGAGAAUCUGGGCCAGGCAGGCAUCAGAAGAAAUAGUCUUGCGCUCAGCCAGAAGGUCUGUAAUCAUUUUAAGGGUA [U2C A67G A90G A111G A118G] | 0.01
GCUAACGGUCAUAGGCCAUGGAAACUAGGAGCACCAUUUCGCUGCCAGUGAAGAAAUGAACGUAGAAAAUCUGGGCCAGGCAGGCAUCAAAAGAAAUAGUCUUGCGCUCAACCAGAAAGUCUGUAAUCAUUUUAAGGGUA [U2C A62G A63U] | 1.52
GCUAACGGUCAUAGGCCAUGGAAACUAGGAGCACCAUUUCGCUGCCAGUGAAGAAAUGAGCAAAGAAAACCUGGGCCAGGCAGGCAUCAAAAGAAAUAGUCUUGCGCUCAACCAGAAAGUCUGUAAUCAUUUUAAGGGUA [U2C A60G U70C] | 0.46
GCUAACGGUCAUAGGCCAUGGAAACUAGGAGCACCAUUUCGCUGCCAGUGAAGAAAUGACCGAAGAAAAUCUGGGCCAGGCAGGCAUCAAGAGAAAUAGUCUUGCGCUCAACCAGAAAGUCUGUAAUCAUUUUAAGGGUA [U2C A60C A62G A91G] | 0.91
GCUAACGGUCAUAGGCCAUGGAAACUAGGAGCACCAUUUCGCUGCCAGUGAAGAAGUGAACAAAGAAAAUCUGGGCCAGGCAGGCAUCAAAAGAAAUAGUCUUGCGCUCGACCAGAAAGUCUGUAAUCAUUUUAAGGGUA [U2C A56G A110G] | 0.17
GCUAACGGUCAUAGGCCAUGGAAACUAGGAGCACCAUUUCGCUGCCAGUGAAGAAAUGGACAAAGAAAAUCUGGGCCAGGCAGGCAUCAAAAGAAAUAGUCUUGCGCUCAACCAGAAAGUCUGUAAUCUUUUUAAGGGUA [U2C A59G A129U] | 0.57
GCUAACGGUCAUAGGCCAUGGAAACUAGGAGCACCAUUUCGCUGCCAGUGAAGAAAUGAACAAAGAAAAUCUGGGCCUGGCAGGCAUCAAAAGAAAUAGUCUUGCGCUCAGCCGGAAAGUCUGUAACCAUUUUAAGGGUA [U2C A78U A111G A114G U127C] | 0
GCUAACGGUCAUAGGCCAUGGAAACUAGGAGCACCAUUUCGCUGCCAGUGAAGAAAUGAACAAAGAGAAUCUGGGCCAGGCAGGCAUCAAAAGAAAUAGUCUUGCGCUCAACCGGAAAGUCUGUAAUCAUUUUAAGGGUA [U2C A67G A114G] | 0.58
GCUAACGGUCAUAGGCCAUGGAAACUAGGAGCACCAUUUCGCUGCCAGUGAAGAAAUGAGCAAUGAAAAUCUGGGCCAUGCAGGCAUCAAAAGAAAUAGUCUUGCGCUCAACCAGAAAGUCUGUAAUCAUUUUAAGGGUA [U2C A60G A64U G79U] | 0.17
GCUAACGGUCAUAGGCCAUGGAAACUAGGAGCACCAUUUCGCUGCCAGUGAAGAAAUGAACAAAGAAAAUCUGGGCCGGGCAGGCAUCAAAAGAAAUAGUCUUGCGCUCGACCAGAAAGUCUGUAAUCAUUUUAAGGGUA [U2C A78G A110G] | 0.01
GCUAACGGUCAUAGGCCAUGGAAACUAGGAGCACCAUUUCGCUGCCAGUGAAGAAAUGAACGAAGAAAAUCUGGGCCAGGCAGGCAUCAAAAGAAAUAGUCUUGCGCUCAACCAGAAAGUCUGUGAUCAUUUUAAGGGUG [U2C A62G A125G A140G] | 0.3
GCUAACGGUCAUAGGCCAUGGAAACUAGGAGCACCAUUUCGCUGCCAGUGAAGAAAUGAACAAAGAAGAUCUGGGCCAGGCAGGCAUCAAAAGAAAUAGUCUUGCGCUCAACCAGGAAGUCUGUAAUCAUUUUAAGGGUA [U2C A68G A116G] | 0.35
GCUAACGGUCAUAGGCCAUGGAAACUAGGAGCACCAUUUCGCUGCCAGUGAAGAAAUGAACAUAGAAAAUCUGGGCCAGGCAGGCAUCAAAAGGAAUAGUCUUGCGCUCAACCAGAAAGUCUGUAAUCAUUUUAAGGGUA [U2C A63U A94G] | 1.98
GCUAACGGUCAUAGGCCAUGGAAACUAGGAGCACCAUUUCGCUGCCAGUGAAGAAAUGAACAAAGAAGAUCUGGGCCAGGCAGGCAUCAAAAGAAAUAGUCUUGCGCUCAACCAGAAAAUCUGUAAUCAUUUUAAGGGUA [U2C A68G G119A] | 0.51
GCUAACGGUCAUAGGCCAUGGAAACUAGGAGCACCAUUUCGCUGCCAGUGAAGUAAUGAACAAAGAAAAUCUGGGCCAGGCAGGCAUCAAAAGAAAUAGUCUUGCGCUCAACCGGAAAGUCUGUAAUCAUUUUAAGGGUA [U2C A54U A114G] | 0.32

Variant | self-cleavage
GCUAACGGUCAUAGGCCAUGGAAACUAGGAGCACCAUUUCGCUGCCAGUGAAGAAAUGAACGAAGAAAAUCUGGGCCAGGCAGGCAUCAAAAGGAAUAGUCUUGCGCUCAACCAGAAAGUCUGUAAUCAUUUUAAGGGUA [U2C A62G A94G] | 0.42
GCUAACGGUCAUAGGCCAUGGAAACUAGGAGCACCAUUUCGCUGCCAGUGAAGAAGUGAACAAAGAAAAUCUGGGCCAGGCAGGCUUCAAAAGAAAUAGUCUUGCGCUCAACCAGAAAGUCCGUAAUCAUUUUAAGGGUA [U2C A56G A86U U122C] | 1.79
GCUAACGGUCAUAGGCCAUGGAAACUAGGAGCACCAUUUCGCUGCCAGUGAAGAAAUGAACAAAGCAAAUCUGGGCCAGGCAGGCAUCAAAAGAAAUAGUCUUGCGCUCGACCAGAAAGUCUGUAAUCAUUUUAAGGGUA [U2C A66C A110G] | 0.19
GCUAACGGUCAUAGGCCAUGGAAACUAGGAGCACCAUUUCGCUGCCAGUGAAGAAAUGAACAAAGAAAGUCUGGGCCAGGCAGGCAUCAAAAGAAAUAGCCUUGCGCUCGACCAGAAAGUCUGUAAUCAUUUUAAGGGUA [U2C A69G U100C A110G] | 0.18
GCUAACGGUCAUAGGCCAUGGAAACUAGGAGCACCAUUUCGCUGCCAGUGAAGAAAUGAACAAGGAAGAUCUGGGCCAGGCAGGCAUCGAAAGAAAUAGUCUUGCGCUCAACCAGAAAGUCUGUAAUCAUUUUAAGGGUA [U2C A64G A68G A89G] | 0.77
GCUAACGGUCAUAGGCCAUGGAAACUAGGAGCACCAUUUCGCUGCCAGUGAAGAGAUGAACAAAGGAAAUCUGGGCCAGGCAGGCAUCAAAAGAAAUAGUCUUGCGCUCAACCAGAAAGUCUGUAAUCAUUUUAAGGGUA [U2C A55G A66G] | 1.23
GCUAACGGUCAUAGGCCAUGGAAACUAGGAGCACCAUUUCGCUGCCAGUGAAGAAAUGAACAAAGGAAAUCUGGGCCAGGCAGGCAUCUAGAGAGAUAGUCUUGCGCUCAACCAGAAAGUCUGUAAUCAUUUUAAGGGUA [U2C A66G A89U A91G A95G] | 0.78
GCUAACGGUCAUAGGCCAUGGAAACUAGGAGCACCAUUUCGCUGCCAGUGAAGAAAUGAACAAGGAAAAUCUGGGCCAGGCAGGCAUCAAAGGAAAUAGUCUUGCGCUCAACCAGAAAGUCUGUAACCAUUUUAAGGGUA [U2C A64G A92G U127C] | 0.73
GCUAACGGUCAUAGGCCAUGGAAACUAGGAGCACCAUUUCGCUGCCAGUGAAGAAAUGAACAAAGAAGAUCUGGGCCAGGCAGGCAUCAAAAGAAAUAGUCUUGCGCUCAGCCAGAAAGUCUGUAAUCAUUUUAAGGGUA [U2C A68G A111G] | 0.03
GCUAACGGUCAUAGGCCAUGGAAACUAGGAGCACCAUUUCGCUGCCAGUGAAGAGAUGAAUAAAGAAAAUCUGGGCCAGGCAGGCAUCAAAAGAAUUAGUCUUGCGCUCAACCAGAAAGUCCGUAAUCAUUUGAAGGGUA [U2C A55G C61U A96U U122C U133G] | 0.63
GCUAACGGUCAUAGGCCAUGGAAACUAGGAGCACCAUUUCGCUGCCAGUGAAGAAAUGGGCAUAGAAAAUCUGGGCCAGGCAGGCAUCAAAAGAAAUAGUCUUGCGCCCAACCAGAAAGUCUGUAAUCAUUUUAAGGGUA [U2C A59G A60G A63U U108C] | 0.04
GCUAACGGUCAUAGGCCAUGGAAACUAGGAGCACCAUUUCGCUGCCAGUGAAGAAAUGAACAAGGAAAAUCUGGGCCAGGCAGGCAUCAAAAGAAAUAGUCUUGCGCUCAACCAGAAAGGCCGUAAUCAUUUUAAGGGUA [U2C A64G U120G U122C] | 1.44
GCUAACGGUCAUAGGCCAUGGAAACUAGGAGCACCAUUUCGCUGCCAGUGAAGGAAUGAACAAAGAAAAUCUGGGCCAGGCAGGCAUCAAAAGAAAUAGUCUUGCGCUCAACCAGAAAGUCUGUAAUCAUUAUAAGGGUA [U2C A54G U132A] | 0.76
GCUAACGGUCAUAGGCCAUGGAAACUAGGAGCACCAUUUCGCUGCCAGUGAAGAAAUGAACAAAGACAAUCUGGGCCAGGCAGGCAUCAAAAGAAAUGGUCUUGCGCUCAACCAGAAAGUCUGUAAUCAUUUUAAGGGUA [U2C A67C A98G] | 0.78
GCUAACGGUCAUAGGCCAUGGAAACUAGGAGCACCAUUUCGCUGCCAGUGAAGAAAUGAACAAAGAUAAUCUGGGCCAGGCAGGCAUCAAAAGAAAUAGUCUUGCGCUCAACCAGAAAGUCUGUAAUCACUUUAAGGGUA [U2C A67U U130C] | 0.29
GCUAACGGUCAUAGGCCAUGGAAACUAGGAGCACCAUUUCGCUGCCAGUGAAGAAAUGGACAAAGAAAAUCUGGGCCAGGCAGGCAUCAAAAGAAAUAGUCUUGCGCUCAACCAGAAAGUCUGUAAUCACUUUAAGGGUA [U2C A59G U130C] | 0.22
GCUAACGGUCAUAGGCCAUGGAAACUAGGAGCACCAUUUCGCUGCCAGUGAAGAAGUGAACAAAGAAAAUCUGGGCCAGGCAGGCAUCAAAAGAAAUAGCCUUGCGCUCAACCAGAAAGUCUGUAAUCAUUUUAAGGGUA [U2C A56G U100C] | 0.62
GCUAACGGUCAUAGGCCAUGGAAACUAGGAGCACCAUUUCGCUGCCAGUGAAGAAAUGGACAAAGAAAAUCUGGGCCAGGCAGGCAUCAAAAGAGAUAGUCUUGCGCUCAACCAGAAAGUCUGUAAUCAUUUUAAGGGUA [U2C A59G A95G] | 1.23
GCUAACGGUCAUAGGCCAUGGAAACUAGGAGCACCAUUUCGCUGCCAGUGAAGAAAUGAACAAAGAAAAUCUGGGCCGGGCAGGCAUCAAAAGAAAUAGUCUUGCGCUCAACCAGAAAGUCCGUAAUCAUUUUAAGGGUA [U2C A78G U122C] | 0.21
GCUAACGGUCAUAGGCCAUGGAAACUAGGAGCACCAUUUCGCUGCCAGUGAAGAAAUGAACAAAGGAAAUCUGGGCCGGGCAGGCAUCAAAAGAAAUAGACUUGCGCUCAAUCGGAAAGUCUGUAAUCAUUUUAAGGGUA [U2C A66G A78G U100A C112U A114G] | 0.02
